Test results as given in patent publication US7618986B2, “Method of treating latent tuberculosis” (priority 2006, dated 2009).

Test system: dormant H37Rv-CA-luxAB strain
Experiment: microbe, parasite or virus in culture
Conditions: Mycobacterium tuberculosis

## O=[N+]([O-])c1nccn1CCCNc1ccnc2cc(Cl)ccc12 [NLCQ-1, 4-[3-(2-Nitro-1-imidazolyl)-propylamino]-7-chloroquinoline hydrochloride]
read-out: MBC, CFU
  MBC: 50 µM and 18.4 µg/mL
read-out: MBC, Luciferase
  MBC: 25 µM and 9.2 µg/mL

## O=[N+]([O-])c1nccn1CCCCNc1ccnc2cc(Cl)ccc12 [NLCQ-2, 4-[4-(2-nitro-1-imidazolyl)-butylamino]-7-chloroquinoline hydrochloride]
read-out: MBC, CFU
  MBC: 25 µM and 9.8 µg/mL
read-out: MBC, Luciferase
  MBC: 12.5 µM and 4.9 µg/mL

## O=[N+]([O-])c1cn2c(n1)OC[C@@H](OCc1ccc(OC(F)(F)F)cc1)C2 [PA-824]
read-out: MBC, CFU
  MBC: 35.6 µM and 12.8 µg/mL
read-out: MBC, Luciferase
  MBC: 17.8 µM and 6.4 µg/mL

## CO[C@H]1/C=C/O[C@@]2(C)Oc3c(C)c(O)c4c(O)c(c(/C=N/N5CCN(C)CC5)c(O)c4c3C2=O)NC(=O)/C(C)=C\C=C\[C@H](C)[C@H](O)[C@@H](C)[C@@H](O)[C@@H](C)[C@H](OC(C)=O)[C@@H]1C [Rifampin, rifampin]
read-out: MBC, CFU
  MBC: 4.86 µM and 4 µg/mL
read-out: MBC, Luciferase
  MBC: 4.86 µM and 4 µg/mL

Several values for one entry are separate records, joined by “and”; a condition that tells them apart may be missing. Equal entries are not always repeated. Structures can show the parent of a compound that is named as a salt. Where two headings read alike, the source gives them in different places.
